The full ranking holds about 81,000 sequences; the median of “one-hybrid fitness for binding NBS DNA” is about -0.1, and the highest 2% start at about 0.36. Some of the results follow.
B1: Caulobacter ParB omega fusion; a variant is named by its letters at X, in order, B8GW30 (parent)
chain: MESVVVGEPGMSEGRRGLGRGLSALLGEVDAAPAQAPGEQLGGSREAPIEILQRNPDQPRRTFREEDLEDLSNSIREKGVLQPILVRPSPDTAGEYQIVAGERAWRAAQRAGLKTVPIMVRELDDLAVLEIGIIENVQRADLNVLEEALSYKVLMEKFERTQENIAQTIGKSXSHVANXMRLLXLPDEVQSYLVSGELTAXHARAIAAAADPVALAKQIIEGGLSVRETEALARKAPNLSAGKSKGGRPPRVKDTDTQALESDLSSVLGLDVSIDHRGSTGTLTITYATLEQLDDLCNRLTRGI

Variants of: B1
Experiment: one-hybrid fitness for binding NBS DNA (the Noc-binding site; scaled: cognate 1, non-cognate 0); higher = stronger binding
Settings: with NBS DNA site
Outline: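 The reporter was HIS3, with the binding site 19 bp from the promoter, in E. coli USO used for bacterial one-hybrid selection of Caulobacter ParB libraries with four specificity codons randomised. Growth was on M9 lacking histidine, with 0.1 mM IPTG and 5 mM 3-AT, for 48 hours at 37°C. Illumina sequencing covered plasmids before and after selection; three replicate libraries were pooled and variants with under 10 reads dropped. A fitness score is the log change in variant-to-wild-type read ratio, rescaled to the cognate and non-cognate references.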

Point of comparison: RTNC, “one-hybrid fitness for binding NBS DNA” value 0.238. Against it:
- MLSE — lower, ≤ 0.2
- IGVC — lower, ≤ 0.2
- AING — lower, ≤ 0.2
- RNPP — lower, ≤ 0.2
- KKGA — lower, ≤ 0.2
- PPGV — lower, ≤ 0.2
- FKPN — lower, ≤ 0.2
- YLVI — lower, ≤ 0.2
- WATN — lower, ≤ 0.2
- WHLS — lower, ≤ 0.2
- EFSR — lower, ≤ 0.2
- RNFI — lower, ≤ 0.2
- RLRK — lower, ≤ 0.2
- WDRC — lower, ≤ 0.2
- HWST — lower, ≤ 0.2
- QPST — lower, ≤ 0.2
- GAPK — lower, ≤ 0.2
- SYPW — lower, ≤ 0.2
- TFVV — lower, ≤ 0.2
- ADQP — lower, ≤ 0.2
- WGGL — lower, ≤ 0.2
- KSPR — lower, ≤ 0.2
- ICIS — lower, ≤ 0.2
- KVSS — lower, ≤ 0.2
- NNTM — lower, ≤ 0.2
- HDLK — lower, ≤ 0.2
- WQVL — lower, ≤ 0.2
- LPLI — lower, ≤ 0.2
- RKCF — lower, ≤ 0.2
- DVLV — lower, ≤ 0.2
- IIRA — lower, ≤ 0.2
- YWPF — lower, ≤ 0.2
- YMMC — lower, ≤ 0.2
- TGQY — lower, ≤ 0.2
- PCMQ — lower, ≤ 0.2
- KEHW — lower, ≤ 0.2
- EILR — lower, ≤ 0.2
- VKIT — lower, ≤ 0.2
- KVVR — lower, ≤ 0.2
- PDMM — lower, ≤ 0.2
- QRQK — higher, 0.365
- GYWN — lower, ≤ 0.2
- NTIM — lower, ≤ 0.2
- PAYR — lower, ≤ 0.2
- VTKW — lower, ≤ 0.2
- TPCF — lower, ≤ 0.2
- CYAG — lower, ≤ 0.2
- RMLS — higher, 0.309
- STLK — lower, ≤ 0.2
- DEGS — lower, ≤ 0.2
- IRTN — lower, ≤ 0.2
- LKAT — lower, ≤ 0.2
- QWTR — higher, 0.239
- CVRR — lower, ≤ 0.2
- VDWC — lower, ≤ 0.2
- QSHN — lower, ≤ 0.2
- AHKF — lower, ≤ 0.2
- LAHN — lower, ≤ 0.2
- KQYS — lower, ≤ 0.2
- HIVW — lower, ≤ 0.2
- ITYV — lower, ≤ 0.2
- AMST — lower, ≤ 0.2
- DQRE — lower, ≤ 0.2
- YFRT — lower, ≤ 0.2
- GSGR — lower, ≤ 0.2
- VFDW — lower, ≤ 0.2
- DTPN — lower, ≤ 0.2
- CNLC — lower, ≤ 0.2
- HLLA — lower, ≤ 0.2
- QRLY — higher, 0.447
- RPKT — lower, ≤ 0.2
- GNKC — lower, ≤ 0.2
- HRYN — lower, ≤ 0.2
- EKAF — lower, ≤ 0.2
- IYTL — lower, ≤ 0.2
- DLWV — lower, ≤ 0.2
- TRPI — lower, ≤ 0.2
- VVLA — lower, ≤ 0.2
- PPRP — lower, ≤ 0.2
- ASLR — lower, ≤ 0.2
- MNSR — lower, ≤ 0.2
- GTRL — lower, ≤ 0.2
- KGLR — lower, ≤ 0.2
- YNQY — lower, ≤ 0.2
- YHQA — lower, ≤ 0.2
- LTYV — lower, ≤ 0.2
- LRRG — lower, ≤ 0.2
- EQAC — lower, ≤ 0.2
- DCKS — lower, ≤ 0.2
- SPMG — lower, ≤ 0.2
- YRQY — lower, ≤ 0.2
- QIAA — lower, ≤ 0.2
- SRSH — lower, ≤ 0.2
- QVMI — lower, ≤ 0.2
- LWFV — lower, ≤ 0.2
- ASNA — lower, ≤ 0.2
- VRWW — lower, ≤ 0.2
- AFVK — lower, ≤ 0.2
- HACW — lower, ≤ 0.2
- PEYS — lower, ≤ 0.2
- YHPS — lower, ≤ 0.2
- YHTA — lower, ≤ 0.2
- RIDL — lower, ≤ 0.2
- PLSQ — lower, ≤ 0.2
- HCDR — lower, ≤ 0.2
- LVKR — lower, ≤ 0.2
- VVKE — lower, ≤ 0.2
- VHHT — lower, ≤ 0.2
- PVWM — lower, ≤ 0.2
- ATPD — lower, ≤ 0.2
- KVLG — lower, ≤ 0.2
- YPKL — lower, ≤ 0.2
- CSNV — lower, ≤ 0.2
- QDMC — lower, ≤ 0.2
- CLHY — lower, ≤ 0.2
- NHDV — lower, ≤ 0.2
- CCQC — lower, ≤ 0.2
- VLGV — lower, ≤ 0.2
- RCTV — lower, ≤ 0.2
- DRMV — lower, ≤ 0.2
- QQMQ — lower, ≤ 0.2
- IHYS — lower, ≤ 0.2
- RCLA — lower, ≤ 0.2
- RTKC — higher, 0.31
- HVQV — lower, ≤ 0.2
- PSMI — lower, ≤ 0.2
- YRQR — lower, ≤ 0.2
- MKRL — lower, ≤ 0.2
- SPYT — lower, ≤ 0.2
- TTVK — lower, ≤ 0.2
- RGNC — lower, ≤ 0.2
- MTCY — lower, ≤ 0.2
- ISIY — lower, ≤ 0.2
- ADKW — lower, ≤ 0.2
- SQGT — lower, ≤ 0.2
- EEKY — lower, ≤ 0.2
- VLDM — lower, ≤ 0.2
- SFVT — lower, ≤ 0.2
- FYYG — lower, ≤ 0.2
- DNEV — lower, ≤ 0.2
- TVKA — lower, ≤ 0.2
- TDGD — lower, ≤ 0.2
- TTHY — lower, ≤ 0.2
- ISNW — lower, ≤ 0.2
- RANF — lower, ≤ 0.2
- RNFA — lower, ≤ 0.2
- KMPG — lower, ≤ 0.2
- GGHS — lower, ≤ 0.2
- GDMG — lower, ≤ 0.2
- LAVR — lower, ≤ 0.2
- PENR — lower, ≤ 0.2
- QNRE — lower, ≤ 0.2
- RPFK — lower, ≤ 0.2
- RETF — lower, ≤ 0.2
- IGAT — lower, ≤ 0.2
- RIIS — lower, ≤ 0.2
- LGHT — lower, ≤ 0.2
- IRSF — lower, ≤ 0.2
- APSV — lower, ≤ 0.2
- VGPC — lower, ≤ 0.2
- HHML — lower, ≤ 0.2
- CPNL — lower, ≤ 0.2
- IFDS — lower, ≤ 0.2
- AWYG — lower, ≤ 0.2
- DTMG — lower, ≤ 0.2
- TKRS — lower, ≤ 0.2
- REDE — lower, ≤ 0.2
- QLSN — lower, ≤ 0.2
- ARRW — lower, ≤ 0.2
- QKEE — lower, ≤ 0.2
- VSNK — lower, ≤ 0.2
- PNNV — lower, ≤ 0.2
- CQGA — lower, ≤ 0.2
- LTHI — lower, ≤ 0.2
- MLRG — lower, ≤ 0.2
- EPAP — lower, ≤ 0.2
- KAHR — lower, ≤ 0.2
- DCTR — lower, ≤ 0.2
- QYTD — lower, ≤ 0.2
- TITC — lower, ≤ 0.2
- QKPY — lower, ≤ 0.2
- RMML — lower, ≤ 0.2
- TQTS — lower, ≤ 0.2
- FPTG — lower, ≤ 0.2
- MRVR — lower, ≤ 0.2
- KVSW — lower, ≤ 0.2
- SINS — lower, ≤ 0.2
- KRAS — higher, 0.409
- HCGP — lower, ≤ 0.2
- RYQG — lower, ≤ 0.2
- QVKE — lower, ≤ 0.2
- EHQS — lower, ≤ 0.2
- AIMR — lower, ≤ 0.2
- FRLV — lower, ≤ 0.2
- KTLQ — lower, ≤ 0.2
- RVVF — lower, ≤ 0.2
- AMTW — lower, ≤ 0.2
- HYQE — lower, ≤ 0.2
- RWAA — lower, ≤ 0.2
- RNSD — lower, ≤ 0.2
- WNQG — lower, ≤ 0.2
- ETCR — lower, ≤ 0.2
- RKII — lower, ≤ 0.2
- SSLA — lower, ≤ 0.2
- LADP — lower, ≤ 0.2
- WNAL — lower, ≤ 0.2
- TPGM — lower, ≤ 0.2
- IRNI — lower, ≤ 0.2
- QYDS — lower, 0.203
- HKKT — lower, ≤ 0.2
- EPFG — lower, ≤ 0.2
- GWLI — higher, 0.404
- AWPS — lower, ≤ 0.2
- QNTC — lower, ≤ 0.2
- MRGY — lower, ≤ 0.2
- QFMG — lower, ≤ 0.2
- RQNP — lower, ≤ 0.2
- RCKL — lower, ≤ 0.2
- WYAL — lower, ≤ 0.2
- DLDR — lower, ≤ 0.2
- IMHM — lower, ≤ 0.2
- TNSN — lower, ≤ 0.2
- HTKV — lower, ≤ 0.2
- YCKK — lower, ≤ 0.2
- RLTV — lower, ≤ 0.2
- SKKG — lower, ≤ 0.2
- YSIG — lower, ≤ 0.2
- NYNM — lower, ≤ 0.2
- VCNA — lower, ≤ 0.2
- AYNH — lower, ≤ 0.2
- MTDS — lower, ≤ 0.2
- HPLQ — lower, ≤ 0.2
- GGMD — lower, ≤ 0.2
- ASHD — lower, ≤ 0.2
- KMKC — lower, ≤ 0.2
- QLYI — lower, ≤ 0.2
- FASD — lower, ≤ 0.2
- QAIV — lower, ≤ 0.2
- FRQV — lower, ≤ 0.2
- YDMS — lower, ≤ 0.2
- FAKS — lower, ≤ 0.2
- GPPK — lower, ≤ 0.2
- MMGR — lower, ≤ 0.2
- TPEY — lower, ≤ 0.2
- NMMP — lower, ≤ 0.2
- NSHK — lower, ≤ 0.2
- PDEG — lower, ≤ 0.2
- FKYR — lower, ≤ 0.2
- QNAP — lower, ≤ 0.2
- SMVF — lower, ≤ 0.2
- ERII — lower, ≤ 0.2
- AKYG — lower, ≤ 0.2
- DLPG — lower, ≤ 0.2
- ENYT — lower, ≤ 0.2
- HFIV — lower, ≤ 0.2
- MTAW — lower, ≤ 0.2
- FHHI — lower, ≤ 0.2
- KYSC — lower, ≤ 0.2
- LSHA — lower, ≤ 0.2
- VMAR — lower, ≤ 0.2
- NQNT — lower, ≤ 0.2
- QSQD — lower, ≤ 0.2
- FRHC — lower, ≤ 0.2
- PTLG — lower, ≤ 0.2
- RIET — lower, ≤ 0.2
- LKDH — lower, ≤ 0.2
- NAQN — lower, ≤ 0.2
- GKRT — lower, ≤ 0.2
- DGIC — lower, ≤ 0.2
- LYPG — lower, ≤ 0.2
- QGRS — lower, ≤ 0.2
- ASAF — lower, ≤ 0.2
- RDCN — lower, ≤ 0.2
- KEGM — lower, ≤ 0.2
- QHFV — lower, ≤ 0.2
- ALGG — lower, ≤ 0.2
- SCSN — lower, ≤ 0.2
- NRKM — lower, ≤ 0.2
- DGKF — lower, ≤ 0.2
- RVVI — lower, ≤ 0.2
- PRFE — lower, ≤ 0.2
- DCTS — lower, ≤ 0.2
- AWKI — lower, ≤ 0.2
- NPIA — lower, ≤ 0.2
- ISPL — lower, ≤ 0.2
- QEAN — lower, ≤ 0.2
- RHRG — lower, ≤ 0.2
- FTEI — lower, ≤ 0.2
- QCNS — higher, 0.534
- GSDG — lower, ≤ 0.2
- SLTV — lower, ≤ 0.2
- SHQS — lower, ≤ 0.2
- RAGQ — lower, ≤ 0.2
- LPYY — lower, ≤ 0.2
- QEQR — lower, ≤ 0.2
- FKIS — lower, ≤ 0.2
- FYVS — lower, ≤ 0.2
- GDED — lower, ≤ 0.2
- LKWC — lower, ≤ 0.2
- TTSK — lower, ≤ 0.2
- PPTS — lower, ≤ 0.2
- WNLC — lower, ≤ 0.2
- MTKY — lower, ≤ 0.2
- NRTA — lower, ≤ 0.2
- WIHS — lower, ≤ 0.2

From a collection of fitness landscapes (doi:10.1016/j.celrep.2020.107928)
